Test results: the supplement of paper PMC5919970
Where a name gives a salt, the structure may show the parent alone. Whole data set: some 2,000 compounds, median “fractional viability relative to vehicle” near 0.91, cut for the lowest 2% near 0.045. Some of the results follow.

System: TYKNU
Assay: fractional viability relative to vehicle; TYKNU is a high-grade serous ovarian cancer line; higher = less growth inhibition
Details: 72 h
Summary of the method: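 TYKNU control cells or lentiCRISPRv2 knockout derivatives were plated at 500 cells per well in duplicate into drug-stamped 384-well plates holding a ~2100-compound library at 2 or 10 μM. Culture was in RPMI 1640 with 10% FBS at 37 °C in 5% CO2, with 72 h of drug treatment. Viability was measured by Cell Titer Glo luminescence, and the averaged duplicate treatment wells were normalised to duplicate control wells at the same plate position.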

[1] = 2uM, genotype: DNM1L knockout (sgDNM1L #1)
[2] = 2uM, genotype: sgCTRLA1 (non-targeting control)
[3] = 10uM, genotype: DNM1L knockout (sgDNM1L #1)
[4] = 10uM, genotype: sgCTRLA1 (non-targeting control)

Compound	fractional viability [1]	fractional viability [2]	fractional viability [3]	fractional viability [4]
Cc1nn(-c2ccccc2)c(C)c1C=NN1CCN(Cc2ccccc2)CC1	0.866	1.15	0.746	1.24
O=C(O)C(=O)O.[NH-][C@@H]1CCCC[C@H]1[NH-].[Pt+2] [Oxaliplatin]	0.737	0.829	0.451	0.487
O=C(NCC1(c2nc(-c3ccccc3)cs2)CCOCC1)c1cccc(-c2noc(C(F)(F)F)n2)c1	0.764	1.05	0.562	0.909
Cc1c(C(=O)NN2CCCCC2)nn(-c2ccc(Cl)cc2Cl)c1-c1ccc(Cl)cc1 [Rimonabant]	1.11	1.01	0.575	0.753
C[C@H]1c2cccc(O)c2C(=O)C2=C(O)[C@]3(O)C(=O)C(C(N)=O)=C(O)[C@@H](N(C)C)[C@@H]3[C@@H](O)[C@@H]21 [Doxycycline Hyclate]	1.12	1.2	0.54	0.41
COc1cc2c(cc1OC)CC(=O)N(CCCN(C)C[C@H]1Cc3cc(OC)c(OC)cc31)CC2 [Ivabradine HCl]	1.08	1.14	0.804	1.02
Clc1ccc(C(Cn2ccnc2)OCc2ccsc2Cl)c(Cl)c1 (stereo not given) [Tioconazole]	1	1.06	0.761	0.955
COc1cc(C(=O)N2CCC(N3CCN(C)CC3)CC2)ccc1Nc1ncc2c(n1)N(C)c1ccccc1C(=O)N2C	0.584	0.826	0.45	0.389
CCOC(=O)c1cnc2ccc(-c3cncc(NS(=O)(=O)c4ccccc4)c3)cn12	0.176	0.171	0.183	0.108
C[C@@H](Nc1cc(F)cc(F)c1)c1cc(C(=O)N(C)C)cc2c(=O)cc(N3CCOCC3)oc12	0.647	0.847	0.701	0.566
CCCN1CCCC[C@H]1C(=O)Nc1c(C)cccc1C [Ropivacaine HCl]	0.944	1.13	0.926	1.13
CC(C)(OCc1nn(Cc2ccccc2)c2ccccc12)C(=O)O [Bindarit]	1.13	1.03	0.806	1.01
Cc1cccc(-c2[nH]c(C(C)(C)C)nc2-c2ccc3c(c2)OCO3)n1	0.987	0.98	0.471	0.423
CC(NC(=O)c1ccccc1/N=C/c1c(O)ccc2ccccc12)c1ccccc1 (stereo not given) [Sirtinol]	1.02	1.16	0.934	1.08
CN1CC(=O)N2[C@H](c3ccc4c(c3)OCO4)c3[nH]c4ccccc4c3C[C@@H]2C1=O [Tadalafil]	1.12	1.09	1.13	1.06
